The source of these data is patent US20220175942A1 (published 2022).

The target in this assay is EVASIN3. The assay can be described thus: -; previously described evasin.

B1: CXCL8_HUMAN (ligand)
chain: not shown
As usually defined, the Kd is a measure of binding affinity in units of concentration. Molecule B1 returned a dissociation constant (Kd) of 430 pM.
